Assay results: the supplement of paper PMC12217912
The other results are listed elsewhere or left out. The full chains were built here from the parent and the listed change. Values near 0.05 are background.

B1: TEV protease; numbered along this chain (parent)
chain: MGESLFKGPRDYNPISSSICHLTNESDGHTTSLYGIGFGPFIITNKHLFRRNNGTLVVQSLHGVFKVKDTTTLQQHLVDGRDMIIIRMPKDFPPFPQKLKFREPQREERICLVTTNFQTKSMSSMVSDTSCTFPSGDGIFWKHWIQTKDGQCGSPLVSTRDGFIVGIHSASNFTNTNNYFTSVPKNFMELLTNQEAQQWVSGWRLNADSVLWGGHKVFMVKPEEPFQPVKEATQL

Variants of: B1
Experiment: raw area under fraction-flipped curve 0-4 h after induction (AUC4h, not background-subtracted), DNA-recorder readout of cleavage of the substrate (dimensionless); higher = more cleavage of the substrate by the protease variant
Details: temperature: 34 °C; time window: 0-4 h after rhamnose induction
Procedure: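 In vivo DNA recorder in E. coli TOP10(DE3) ΔrhaA at 34 °C. Each TEVp single-site mutant (parent TEVp 0) is paired with a single-site variant of the 7-mer TEVs (canonical ENLYFQ|S). The substrate sits between flexible linkers in a Bxb1-sfGFP-TEVs-SsrA fusion, so cleavage stabilises Bxb1 and speeds flipping of a recombination array, read by NGS. The value is the raw area under the fraction-flipped curve over 0-4 h after rhamnose induction (AUC4h), with ≥20 reads per time point. It is not background-subtracted; inactive controls average about 0.047.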
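Also: Bxb1 expression induced with 0.2% (w/v) L-rhamnose at OD600 near 0.5, cultures sampled hourly, flipped fraction per protease–substrate barcode pair counted by paired-end Illumina sequencing.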

Variant | area with substrate ENAYFQS | area with substrate ENCYFQS | area with substrate ENDYFQS | area with substrate ENEYFQS | area with substrate ENFYFQS | area with substrate ENGYFQS | area with substrate ENHYFQS | area with substrate ENIYFQS | area with substrate ENKYFQS | area with substrate ENMYFQS | area with substrate ENNYFQS | area with substrate ENPYFQS | area with substrate ENQYFQS | area with substrate ENRYFQS | area with substrate ENSYFQS | area with substrate ENVYFQS | area with substrate ENWYFQS | area with substrate ENTYFQS | area with substrate ENYYFQS
S121L | 0.0629 | 0.0659 | 0.05 | 0.0568 | 0.0575 | 0.0637 | 0.0634 | 0.121 | 0.0622 | 0.0948 | 0.0629 | 0.0665 | 0.0605 | 0.0561 | 0.0553 | 0.0806 | 0.0817 | – | –
K148P | 0.072 | 0.0738 | 0.0613 | 0.0643 | 0.0813 | – | 0.0662 | – | 0.0599 | 0.0565 | – | 0.0547 | – | 0.0632 | – | – | – | 0.066 | 0.0677
L211C | 0.0643 | – | 0.064 | – | 0.0653 | 0.0537 | 0.0744 | – | 0.0642 | – | – | 0.0683 | 0.0659 | – | 0.0748 | – | – | – | 0.0499
K46L | 0.0614 | 0.0625 | 0.062 | 0.0597 | – | 0.0578 | 0.049 | 0.0644 | 0.039 | 0.0376 | 0.0562 | 0.0565 | 0.0634 | 0.058 | 0.0703 | 0.063 | – | 0.0507 | –
L77D | 0.0603 | 0.0659 | 0.0601 | 0.0607 | 0.0642 | 0.0606 | 0.0519 | 0.0496 | 0.0652 | 0.0627 | 0.0677 | 0.0383 | 0.0617 | – | 0.0578 | 0.0576 | 0.0602 | 0.0643 | 0.0439
L77V | 0.0796 | 0.0537 | 0.0572 | 0.0594 | – | – | 0.058 | – | 0.0627 | 0.0686 | 0.0559 | 0.0572 | 0.0634 | 0.0648 | 0.0833 | 0.0578 | – | 0.0374 | –
E25T | 0.0667 | 0.0653 | 0.0571 | 0.0643 | – | 0.0507 | 0.0695 | – | 0.0511 | 0.0842 | – | 0.062 | – | 0.0508 | 0.0578 | 0.0791 | – | 0.0599 | –
Y12D | 0.0569 | 0.0551 | 0.0592 | 0.0444 | 0.0418 | 0.0739 | 0.0545 | 0.0879 | 0.0758 | – | 0.0662 | 0.051 | 0.0494 | – | 0.0634 | 0.0685 | 0.0074 | 0.0524 | –
W203C | 0.0704 | 0.0666 | 0.0805 | 0.0509 | 0.0661 | – | – | 0.0169 | 0.0789 | – | 0.0665 | – | 0.0583 | 0.0758 | 0.0442 | 0.0687 | 0.0257 | 0.0551 | –
S17K | 0.0681 | 0.0653 | 0.0497 | 0.0623 | 0.0638 | 0.0583 | 0.0268 | 0.119 | 0.0599 | 0.0849 | 0.0484 | 0.0647 | 0.0621 | – | 0.0726 | 0.0741 | 0.0999 | 0.0555 | 0.0603
F133Y | 0.0615 | 0.0638 | 0.0688 | 0.0674 | 0.0669 | – | – | – | – | – | – | 0.0759 | 0.0747 | – | – | 0.0852 | – | 0.0703 | 0.0596
M122W | 0.0557 | 0.0929 | 0.0565 | 0.0561 | 0.0928 | 0.063 | – | – | 0.058 | 0.0854 | 0.0467 | 0.0427 | 0.0582 | 0.0435 | 0.0489 | 0.0541 | – | – | –
